This is a noisy data set.
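Note: [psi-pin-] Saccharomyces cerevisiae expressing SupN fusions, induced by 100 µM Cu2SO4, selected 7 d at 30 °C without adenine and uracil, scored by deep sequencing of output versus input.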

A short description of the first data set: amyloid nucleation score relative to library mode (yeast Sup35 reporter selection) (log enrichment difference); higher = more amyloid nucleation; sequences are the first 22 residues of the Bri2 peptide extended by up to 12 random residues. As to conditions: random library (experiment): 1;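 active = nucleation score significantly above 0 at FDR 0.05; inactive = not significantly above 0 or absent from output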.
The sequence EASNCFAIRHFENKFAVETLICGFSVSIHVISQS had an amyloid nucleation score of 2.9.
With EASNCFAIRHFENKFAVETLICGFTSQKQLGRAG, the amyloid nucleation score entry is “inactive”.
The same measure, in the same setting: under EASNCFAIRHFENKFAVETLICGFVHSCLTLCWG stands “inactive”.
The same measure, in the same setting: next, EASNCFAIRHFENKFAVETLICGGDENCRRWAAW: “inactive”.
Take EASNCFAIRHFENKFAVETLICGGDGAVVKGDRP: the amyloid nucleation score entry is “inactive”.
For EASNCFAIRHFENKFAVETLICGGDLEGHVKPFV, the amyloid nucleation score was 0.606.
Same read-out and setting: under EASNCFAIRHFENKFAVETLICGGFLRYAVSRC stands 2.76.
Still for that read-out and setting: next, EASNCFAIRHFENKFAVETLICGGGEALAAGKLV: “inactive”; EASNCFAIRHFENKFAVETLICGGGLTQAGEANV: “inactive”.
For EASNCFAIRHFENKFAVETLICGGKKRCLTVRSV, the amyloid nucleation score result was “inactive”.
Still for that read-out and setting: next, EASNCFAIRHFENKFAVETLICGGL: “inactive”; EASNCFAIRHFENKFAVETLICGGLMHCDGITCS: -0.0755.
Same read-out and setting: next, EASNCFAIRHFENKFAVETLICGGLSMLMGPLAR: “inactive”.
On the same count and under the same terms, under EASNCFAIRHFENKFAVETLICGGLSRQSSAWGS stands “inactive”; under EASNCFAIRHFENKFAVETLICGGNLSLGHTLR, 4.62.
As to EASNCFAIRHFENKFAVETLICGGPSLWRAVRA, the amyloid nucleation score entry is “inactive”.
Still for that read-out and setting: under EASNCFAIRHFENKFAVETLICGGQSWLVYRDAV stands -0.54; under EASNCFAIRHFENKFAVETLICGGRFATWFSHLG, “inactive”.
The same measure, in the same setting: next, EASNCFAIRHFENKFAVETLICGGRGNPYRFK: 0.713.
EASNCFAIRHFENKFAVETLICGGRKRTM registered an amyloid nucleation score of 3.42.
Same read-out and setting: next, EASNCFAIRHFENKFAVETLICGGRRVGLSEGW: “inactive”; EASNCFAIRHFENKFAVETLICGGRWPWQGAWAC: “inactive”; EASNCFAIRHFENKFAVETLICGGSKDL: “inactive”.
The same measure, in the same setting: next, EASNCFAIRHFENKFAVETLICGGSLKWL: -0.0385; EASNCFAIRHFENKFAVETLICGGSVARPCRVRG: “inactive”; EASNCFAIRHFENKFAVETLICGGSVGARGTSSA: “inactive”.
Regarding EASNCFAIRHFENKFAVETLICGGSVGPFEGCEG, the amyloid nucleation score entry is “inactive”.
On to EASNCFAIRHFENKFAVETLICGGTNLIVWTLVG, for which the amyloid nucleation score was found to be 3.84.
The same measure, in the same setting: under EASNCFAIRHFENKFAVETLICGGTSVRSKGMWR stands “inactive”; under EASNCFAIRHFENKFAVETLICGGTVRVRAKS, “inactive”; under EASNCFAIRHFENKFAVETLICGGVARRFLLCC, “inactive”.
Take EASNCFAIRHFENKFAVETLICGGVDSVSTGLEP: the amyloid nucleation score result was “inactive”.
For EASNCFAIRHFENKFAVETLICGGVESRRGGDVG, the amyloid nucleation score result is “inactive”.
On the same count and under the same terms, under EASNCFAIRHFENKFAVETLICGGVPLALASWIR stands “inactive”.
EASNCFAIRHFENKFAVETLICGGVVIGSVRAPV displayed an amyloid nucleation score of 7.27.
On the same count and under the same terms, under EASNCFAIRHFENKFAVETLICGGWRRPFLERDL stands “inactive”; under EASNCFAIRHFENKFAVETLICGGWSQGDGLR, 2.72.
The same measure, in the same setting: under EASNCFAIRHFENKFAVETLICGHCSFISLVRWT stands 5.17.
Same read-out and setting: next, EASNCFAIRHFENKFAVETLICGHDSMPSALGRS: “inactive”; EASNCFAIRHFENKFAVETLICGHEPCTFTRVGS: 3.8; EASNCFAIRHFENKFAVETLICGHF: “inactive”.
EASNCFAIRHFENKFAVETLICGHGMLRCRLSRR yielded an amyloid nucleation score of 4.63.
On the same count and under the same terms, next, EASNCFAIRHFENKFAVETLICGHGNLQLAAWFW: 1.47.
For the sequence EASNCFAIRHFENKFAVETLICGHKSDDSSDRQM, the amyloid nucleation score entry was “inactive”.
On the same count and under the same terms, next, EASNCFAIRHFENKFAVETLICGHLSCMMVCCQA: 3.87.
The same measure, in the same setting: next, EASNCFAIRHFENKFAVETLICGHMSLIGIWKVK: “inactive”; EASNCFAIRHFENKFAVETLICGHRLVLL: “inactive”.
The same measure, in the same setting: under EASNCFAIRHFENKFAVETLICGHRSL stands “inactive”; under EASNCFAIRHFENKFAVETLICGHRTLQKGRCAV, -0.809.
Turning to EASNCFAIRHFENKFAVETLICGHSPEPYRVYL, the amyloid nucleation score was -0.0194.

The data set is the same for the next values; noted with them: random library (experiment): 2.
Turning to EASNCFAIRHFENKFAVETLICGFSQWFESGHYL, the amyloid nucleation score was found to be 5.59.
Same read-out and setting: next, EASNCFAIRHFENKFAVETLICGFSYIWLKSSSS: “inactive”.
In turn, EASNCFAIRHFENKFAVETLICGFTMTRQVNGRR returned an amyloid nucleation score of 4.34.
For the sequence EASNCFAIRHFENKFAVETLICGFVFNEVYGRVV, the amyloid nucleation score amounted to 3.2.
As for EASNCFAIRHFENKFAVETLICGFVLGMRNIGLC, the amyloid nucleation score entry is “inactive”.
Still for that read-out and setting: under EASNCFAIRHFENKFAVETLICGFVSRYITYQCS stands “inactive”.
The same measure, in the same setting: next, EASNCFAIRHFENKFAVETLICGGAWRMAVRERA: 3.1; EASNCFAIRHFENKFAVETLICGGEAI: -0.148; EASNCFAIRHFENKFAVETLICGGLC: 4.92.
On the same count and under the same terms, under EASNCFAIRHFENKFAVETLICGGRDWFGVSGLS stands 4.11; under EASNCFAIRHFENKFAVETLICGGVFSRS, “inactive”; under EASNCFAIRHFENKFAVETLICGGWSH, 4.13.
As to EASNCFAIRHFENKFAVETLICGHLLVWMVHGRV, the amyloid nucleation score result was “inactive”.
EASNCFAIRHFENKFAVETLICGHRGVHCRFHAM came in with an amyloid nucleation score of -0.293.

Still in this data set, the particulars now being: random library (experiment): 3.
As to EASNCFAIRHFENKFAVETLICGFSSRFIPLDGS, the amyloid nucleation score entry is “inactive”.
Regarding EASNCFAIRHFENKFAVETLICGFVEWLQQAVYR, the amyloid nucleation score result is “inactive”.
For the sequence EASNCFAIRHFENKFAVETLICGFVTVVARPRMP, the amyloid nucleation score was 5.26.
The same measure, in the same setting: next, EASNCFAIRHFENKFAVETLICGFW: 5.79.
Still for that read-out and setting: next, EASNCFAIRHFENKFAVETLICGFWSPCVRIPGR: 2.69; EASNCFAIRHFENKFAVETLICGFYCVYSSLIQQ: “inactive”; EASNCFAIRHFENKFAVETLICGFYSDRDVLLLW: “inactive”.
Take EASNCFAIRHFENKFAVETLICGGAMRKAVSPWR: the amyloid nucleation score result was “inactive”.
Same read-out and setting: next, EASNCFAIRHFENKFAVETLICGGCGAILGLVRR: 4.91; EASNCFAIRHFENKFAVETLICGGCHVDSRDLWQ: 6.78.
On to EASNCFAIRHFENKFAVETLICGGCRRGCRVGAR, for which the amyloid nucleation score entry was “inactive”.
Still for that read-out and setting: next, EASNCFAIRHFENKFAVETLICGGDFVRAKRSGP: 0.321.
Same read-out and setting: under EASNCFAIRHFENKFAVETLICGGEEGTPPPTVP stands “inactive”; under EASNCFAIRHFENKFAVETLICGGFCSILLVVS, “inactive”; under EASNCFAIRHFENKFAVETLICGGGSWDRHPRTS, “inactive”.
As to EASNCFAIRHFENKFAVETLICGGGVVPLEWRSG, the amyloid nucleation score entry was “inactive”.
The same measure, in the same setting: next, EASNCFAIRHFENKFAVETLICGGLGNRRCGVCS: “inactive”; EASNCFAIRHFENKFAVETLICGGLR: “inactive”; EASNCFAIRHFENKFAVETLICGGMEKQGEEAWR: “inactive”.
On to EASNCFAIRHFENKFAVETLICGGNDWYHRGFAC, for which the amyloid nucleation score entry was “inactive”.
Same read-out and setting: next, EASNCFAIRHFENKFAVETLICGGQTSGYSRRDG: 0.475; EASNCFAIRHFENKFAVETLICGGRKGAYVGR: “inactive”; EASNCFAIRHFENKFAVETLICGGRNGMNRLWFT: “inactive”.
The same measure, in the same setting: next, EASNCFAIRHFENKFAVETLICGGSCFTCSIGSW: 8.49; EASNCFAIRHFENKFAVETLICGGSCNSHLFLYA: “inactive”; EASNCFAIRHFENKFAVETLICGGSQEIMGRVTA: “inactive”.
On the same count and under the same terms, under EASNCFAIRHFENKFAVETLICGGTHARLVGDWR stands “inactive”.
For EASNCFAIRHFENKFAVETLICGGWCCASLVTPL, the amyloid nucleation score worked out at 8.14.
In turn, EASNCFAIRHFENKFAVETLICGGWRTGGSRLDA had an amyloid nucleation score of 2.63.
For EASNCFAIRHFENKFAVETLICGHALRRSWRLGA, the amyloid nucleation score was found to be 0.0367.
EASNCFAIRHFENKFAVETLICGHAWWPLLFAKG: the amyloid nucleation score entry was “inactive”.
As for EASNCFAIRHFENKFAVETLICGHDPTLPAERVV, the amyloid nucleation score result is “inactive”.
Regarding EASNCFAIRHFENKFAVETLICGHEG, the amyloid nucleation score entry is “inactive”.
On the same count and under the same terms, next, EASNCFAIRHFENKFAVETLICGHGLIGVVCHAK: “inactive”; EASNCFAIRHFENKFAVETLICGHGVNVCFIIE: 3.19.
On the same count and under the same terms, next, EASNCFAIRHFENKFAVETLICGHKRSSPSILFM: “inactive”; EASNCFAIRHFENKFAVETLICGHLACGTSHAVY: 1.19.
Still for that read-out and setting: next, EASNCFAIRHFENKFAVETLICGHMCRLCWKRRL: “inactive”.
For EASNCFAIRHFENKFAVETLICGHRRRVRSRPEW, the amyloid nucleation score entry was “inactive”.

The record behind these values is the supplement of paper PMC12067230.
